In PubChem BioAssay AID463173 (ICCB-Longwood Screening Facility, Harvard Medical School, 2010):
About 1,700 (3.3%) of roughly 52,000 compounds were called active. No stated cut-off is given here; in the data, active means survival mostly below about 52% (no sharp cut-off); inactive means mostly above about 56%. Some of the results follow.

tested on: Wild type; test: S. aureus survival, RN4220 and DeltatarO strains – OD600, teichoic acid synthesis inhibitors, primary screen (AID 463173); settings: S. aureus RN4220 wild type/DeltatarO growth, OD600, 18 h, hits give low values, screened at 18.75 µg/mL (by protocol)

SMILES | survival
CC(NC(=O)C1CCN(C(=O)N2CCOc3ccccc32)CC1)c1ccccc1 (stereo not given) | inactive: 87%
COc1cc(OC)c(NC(=O)CSc2nc3ccncc3[nH]2)cc1Cl | inactive: 123%
CCCCNC(=O)CSc1nc2ccccc2nc1Cc1ccccc1 | inactive: 77%
C=CCNC(=O)CN1CCN(C)CC1 | inactive: 99%
CC(C)Cc1nn2c(=O)cc(O)nc2s1 | inactive: 110%
Cc1ccc(N2CC(NC(=O)C3CCCC3)CC2=O)cc1 (stereo not given) | inactive: 55%
CC(C)CCNC(=O)c1ccc(NC(=O)N2CCCCc3ccccc32)cc1 | inactive: 86%
CCOc1ccc(Nc2c(S(=O)(=O)c3ccccc3)cnc3ccc(CC)cc23)cc1 | active: 4%
Cc1ccc(C(=O)c2cn(CC(=O)Nc3ccc4c(c3)OCCO4)c3nc(C)ccc3c2=O)cc1 | inactive: 83%
COc1cccc(N2CCN(C(=O)Cn3ncc4c3-c3ccccc3OC4)CC2)c1 | inactive: 72%
Oc1cccc2c1NCCC2 | inactive: 113%
CC(C)CC(NC(=O)C1CCC(C)CC1)C(=O)OCC(=O)c1ccc(Cl)cc1 (stereo not given) | inactive: 139%
C#CC(CCN1CCCCC1)(OC)c1ccccc1 (stereo not given) | inactive: 103%
O=C(CSc1nc2ccccc2n1Cc1ccccc1)NCc1ccccc1 | inactive: 78%
CSc1oc(-c2ccc(F)cc2)nc1S(=O)(=O)c1ccc(Br)cc1 | inactive: 54%
Cc1cc(C)cc(OC(C)C(=O)Nc2nc3c(s2)CCCC3)c1 (stereo not given) | inactive: 78%
O=S(=O)(c1ccccc1)N1CCc2ccccc2C1 | inactive: 106%
Cc1cc(NC(=O)S(=O)(=O)c2ccccc2)ccc1NC(=O)c1ccco1 | inactive: 112%
COc1ccc(NC(=O)c2ccco2)cc1NC(=O)c1ccc(OC(C)C)cc1 | inactive: 116%
CCOC(=O)C1=C(CNCc2ccc(Cl)cc2)NC(=O)NC1c1ccccc1 (stereo not given) | inactive: 102%
CC(=O)N1c2ccccc2CC1C(=O)N1CCN(c2ccccc2F)CC1 (stereo not given) | inactive: 71%
COc1cccc(/C=C(\C#N)c2nc3ccccc3c(=O)[nH]2)c1OC | inactive: 83%
CCCC(C(=O)Nc1cc(C)c(Cl)cc1OC)N1Cc2ccccc2C1=O (stereo not given) | inactive: 71%

SMILES | survival
COc1cc(NC(=O)Cn2cc(S(=O)(=O)N3CCC(C)CC3)c3ccccc3c2=O)cc(OC)c1OC | inactive: 75%
COc1ccc(Oc2ncnc3c2oc2ccccc23)cc1 | inactive: 47%
COc1ccc(N2CCN(CNC(=O)c3ccccc3)CC2)cc1 | inactive: 106%
CCOC(=O)c1ccc(NC(=O)C2CCCN(c3cnccn3)C2)cc1 (stereo not given) | inactive: 76%
COc1cn(CC(=O)Nc2cccc(C)c2)c(CN2CCCCC2)cc1=O | inactive: 80%
CCOc1ccc(Nc2ncnc3onc(-c4ccc(Cl)cc4)c23)cc1 | inactive: 66%
COc1ccc(CCNC(=O)Cn2nc(-c3ccc(Cl)cc3)ccc2=O)cc1OC | inactive: 63%
Cc1nc2sccn2c(=O)c1S(=O)(=O)Nc1cccc(Cl)c1C | inactive: 74%
Cc1ccc(OCC(=O)Nc2ccc(C(=O)OCc3cc(=O)n4ccsc4n3)cc2)cc1C | inactive: 73%
CC(=O)c1ccc(N2CCN(S(=O)(=O)c3ccc(-c4cnc(C5CC5)o4)cc3)CC2)cc1 | inactive: 72%
COC(CN1C(=O)c2ccccc2C1=O)OC | inactive: 95%
Cc1ccc(NC(=O)N2CCC(CN3CCCCC3)CC2)c(Cl)c1 | inactive: 73%
C=CCn1cc(/C=C(/C#N)C(=O)OCC)c2ccccc21 | inactive: 96%
CCn1cc(/C=C(\NC(=O)c2ccc(OC)c(OC)c2)C(=O)NCCCn2ccnc2)c2ccccc21 | inactive: 111%
CCOC(=O)c1cc(-c2ccc(OC)cc2)n(CCC(=O)NCCc2ccc(OCC)c(OCC)c2)c1C | inactive: 73%
Cc1ccccc1Nc1nnc(-c2ccc(C)c(S(=O)(=O)NCC3CCCO3)c2)c2ccccc12 (stereo not given) | inactive: 72%
CC(C)(C)OC(=O)N1CCC(c2c(C(=O)N3CCN(c4ncccn4)CC3)cnn2-c2ccc(F)cc2)CC1 | active: -1%
CCOC(=O)c1c(-c2ccc(OC)cc2)oc2ccc(OCc3ccc(F)cc3F)cc12 | inactive: 42%
Cc1ccc(N2CCN(C(=O)CCS(=O)(=O)c3cc4c(cc3Cl)NC(=O)CO4)CC2)c(C)c1 | inactive: 56%
CC1CCN(c2nc3c(S(=O)(=O)c4cccc(Cl)c4)nnn3c3ccsc23)CC1 | inactive: 90%
COc1cc([N+](=O)[O-])ccc1NC(=O)N1CCC2(CC1)Nc1cc(F)ccc1-n1cccc12 | inactive: 64%
Cc1ccc(C2C(=O)N(C3CCCCCC3)CC(=O)N2CCC2=CCCCC2)cc1 (stereo not given) | inactive: 68%
CN(C)c1ccc(CNC(=O)C2CCN(C(=O)c3ccc(-n4ccc5ccccc54)s3)CC2)cc1 | inactive: 59%

SMILES | survival
c1cncc(CNC2CCCc3ccccc32)c1 (stereo not given) | inactive: 110%
Cc1cn2c(=O)cc(COC(=O)c3ccc(NC(=O)c4ccc(C(C)(C)C)cc4)cc3)nc2s1 | active: -3%
CCC(Oc1ccccc1)C(=O)Nc1ccc(Cl)cn1 (stereo not given) | inactive: 112%
COc1ccc(C2=Nc3ccccc3N(CC(=O)Nc3cccc(C(C)=O)c3)C(=O)C2)cc1 | inactive: 136%
COc1ccc(CNS(=O)(=O)c2csc(C(N)=O)c2)cc1OC | inactive: 77%
CCOC(=O)c1ccc(NC(=O)C(CC)Sc2nncn3c2cc2oc(C)cc23)cc1 (stereo not given) | inactive: 68%
CCCCNc1nc2c(-c3cccc(Br)c3)nnn2c2ccccc12 | inactive: 92%
CCC1=C(c2ccc(C)cc2)S(=O)(=O)N=C1N1CCC(C(=O)NCCc2cccc(OC)c2)CC1 | inactive: 72%
COc1cccc2c1cc1c(=O)n(CC(=O)NCCCN3CCN(C)CC3)nc(C)n12 | inactive: 88%
COc1ccc(OCCCn2c(C)nc3cc(C)c(C)cc32)cc1 | inactive: 67%
Cn1nnnc1SCCCNCc1cc(Cl)ccc1OCc1ccccc1 | inactive: 84%
O=C1Nc2c(c(=O)[nH]c(=O)n2-c2ccc(F)cc2)C1(NS(=O)(=O)c1ccc(Cl)cc1)C(F)(F)F (stereo not given) | inactive: 67%
COC(=O)c1ccc(OCC2c3cc(OC)c(OC)cc3CCN2C(=O)Cc2ccc(OC)c(OC)c2)cc1 (stereo not given) | inactive: 79%
CC(C)c1nn2c(=O)cc(COC(=O)c3ccc4c(c3)OCO4)nc2s1 | inactive: 69%
CC(=O)N1CCc2c(sc3c2c(=O)n(-c2ccccc2)c(=O)n3CC(=O)c2ccc(F)cc2)C1 | inactive: 91%
COc1cc(C(=O)Nc2nnc(CC(C)(C)C)s2)cc(OC)c1OC | inactive: 106%
CCc1ccc(NC(=O)C2CCCN2S(=O)(=O)c2cccc3nsnc23)cc1 (stereo not given) | inactive: 116%
Cc1cn2c(=O)c(S(=O)(=O)NCCc3ccc(Cl)cc3)c(C)nc2s1 | inactive: 88%
COc1ccc(-c2nc3sc(CCNC(=O)c4ccc(C(C)(C)C)cc4)c(C)n3n2)cc1 | inactive: 127%
CCOc1ccccc1C(=O)Nc1cc2c(cc1C)n(C)c(=O)c(=O)n2C | inactive: 57%
CCOc1ccc(C(=O)Nc2ccc(Cl)c(-c3nc4cc(C)cc(C)c4o3)c2)cc1 | inactive: 83%
CCc1ccc2occ(CC(=O)NCc3ccccc3)c2c1 | inactive: 122%
CC(C)c1ccc(NC(=O)c2cc(S(=O)(=O)NCCC3=CCCCC3)ccc2F)cc1 | inactive: 78%

SMILES | survival
COc1ccc(NC(=O)Cc2ccc(NC(=O)N3CCCCc4ccccc43)cc2)c(OC)c1 | inactive: 60%
CCN(CC)CCNC(=O)Cn1cnc2sc(C)c(S(=O)(=O)N3CCC(C)CC3)c2c1=O | inactive: 79%
CCOC(=O)C1CCC(CN(Cc2ccc(OC)cc2)S(=O)(=O)c2ccc(F)c(C(=O)Nc3cc(Cl)ccc3OC)c2)CC1 (stereo not given) | inactive: 75%
Nc1nc(OC(C(F)(F)F)C(F)(F)F)nc(OC(C(F)(F)F)C(F)(F)F)n1 | inactive: 66%
COc1ccc(CNC(=O)CN(C)S(=O)(=O)c2ccc3[nH]c4c(c3c2)CCCC4)cc1 | inactive: 67%
Cn1cc(-c2cc3n(n2)CCC(=O)N3CCCC(=O)NCc2ccccc2)c2ccccc21 | inactive: 76%
Cc1ccc(CN2C(=O)N(c3ccc(C)c(Cl)c3)S(=O)(=O)c3ccccc32)cc1 | inactive: 75%
Cc1ccc(NC(=O)C2CCN(S(=O)(=O)c3c(C)noc3C)CC2)cc1C | inactive: 85%
Cc1ccc(NC(=O)C(C)Sc2n[nH]c(-c3ccccc3O)n2)cc1 (stereo not given) | inactive: 83%
COc1cccc(NC(=O)CN2C(=O)C3(SCC(=O)N3c3cc(C)cc(C)c3)c3ccccc32)c1 (stereo not given) | inactive: 73%
COC(=O)c1cc2oc(C)cc2n1Cc1ccc(Cl)cc1 | inactive: 72%
N#Cc1ccc(NC(=O)COCc2cc(-c3ccc(F)cc3)on2)cc1 | inactive: 63%
O=C(Nc1ccc(Cl)cc1C(F)(F)F)c1cc(S(=O)(=O)NCc2ccccc2)ccc1F | inactive: 134%
CCc1ccc(CNC(=O)c2ccc(CS(=O)(=O)Cc3ccccc3C)o2)cc1 | inactive: 71%
CCOc1ccc(CNC(=O)c2cnc(SC)nc2C)cc1 | inactive: 94%
COC(=O)c1c(-c2cccs2)csc1NC(=O)COc1ccc(C(C)C)cc1 | inactive: 73%
CCOC(=O)C1CCN(C(=O)c2nn(-c3ccc(C)cc3)c(=O)n(C)c2=O)CC1 | inactive: 66%
COc1ccc(CNC(=O)CCS(=O)(=O)c2ccc3c(c2)CC(C)N3C(=O)C2CC2)cc1 (stereo not given) | inactive: 76%
CCN(CC)C(=O)C1CCN(C(=O)c2cnn(-c3ccccc3)c2-n2cccc2)CC1 | inactive: 75%
CCOC(=O)CSc1nc2ccccc2n2c(C)nnc12 | inactive: 79%
CC1=C(C(=O)OC2CCCC2)C(c2cccc(Cl)c2Cl)CC(=O)N1 (stereo not given) | inactive: 90%
